These results are taken from PubChem BioAssay AID2202238 (Ras Initiative Chemistry Research Team, Frederick National …, 2025).

The target in the assay is GTPase KRas (Homo sapiens) (UniProt P01116). Put plainly: Covalent labelling of cysteine mutants by fragments, read by mass spectrometry (AID 2202238). On the set-up: protein at 5 µM with 500 µM competing thiol for 1.5 h. As to conditions: KRAS G12D cysteine mutants, disulfide tethering, MALDI-TOF labeling, stronger effect = higher value, fragment at 500 µM.
[1] abbreviates: measured here: G75C mutant labeling.
[2] abbreviates: measured here: H94C mutant labeling.
Where [3] appears, read: measured here: I36C mutant labeling.
The mark [4] stands for this setting: measured here: L120C mutant labeling.
The mark [5] stands for this setting: measured here: M67C mutant labeling.
Where [6] appears, read: measured here: M72C mutant labeling.
Setting [7] is: measured here: N86C mutant labeling.
The mark [8] stands for this setting: measured here: P121C mutant labeling.
Setting [9] is: measured here: S122C mutant labeling.
The mark [10] stands for this setting: measured here: S136C mutant labeling.
[11] abbreviates: measured here: G60C mutant labeling.
[12] abbreviates: measured here: N26C mutant labeling.

The list shows a part of the results. Shown are side measurements of this screen, not its main read-out; they come without a call.

Chain of UniProt P01116 (P01116 whole entry, looked up, the tested form may be a part): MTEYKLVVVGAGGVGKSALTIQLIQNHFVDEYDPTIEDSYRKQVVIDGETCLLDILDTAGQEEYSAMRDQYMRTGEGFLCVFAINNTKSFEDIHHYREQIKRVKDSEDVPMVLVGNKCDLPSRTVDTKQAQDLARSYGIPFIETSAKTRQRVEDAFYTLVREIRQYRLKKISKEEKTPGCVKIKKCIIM

`Cc1nn(C)c(NC(=O)CCS)c1-c1ccccc1`: the percent labeling was found to be 22.2% under setting [1]; 43.6% under setting [2]; 42.2% under setting [3]; 34.9% under setting [4]; 45% under setting [5]; 38.8% under setting [6]. Besides, the percent labeling runs as follows: under setting [7], 19.9%; under setting [8], 33.8%; under setting [9], 31.9%; under setting [10], 55.8%.
For the compound `Cc1c(C(=O)NCCS)ccn1Cc1ccccc1`, the percent labeling turned out to be 30.4% under setting [11]; 12.9% under setting [1]; 20.9% under setting [2]; 12.2% under setting [3]; 26.5% under setting [4]; 24.4% under setting [5]. For the same compound, the percent labeling under setting [6] was determined as 29.3%; the percent labeling under setting [12] is 24.3%; the percent labeling under setting [7] is 9.5%; the percent labeling under setting [8] stood at 16.2%; the percent labeling under setting [9] came out at 13.4%; the percent labeling under setting [10] was 22.1%.
For `Cc1nn(C)cc1C1CCCN1C(=O)CCS` (stereo not given), the percent labeling was 9.3% under setting [1]; 27.2% under setting [2]; 32.5% under setting [3]; 18% under setting [4]; 30.5% under setting [5]; 13% under setting [6]. The compound further yielded a percent labeling under setting [7] of 15.3%, a percent labeling under setting [8] of 25.3%, a percent labeling under setting [9] of 33.2% and a percent labeling under setting [10] of 46.4%.
`COc1cccc(Br)c1C(=O)NCCS`: the percent labeling is, setting by setting: under setting [11], 56.9%; under setting [1], 23%; under setting [2], 43.7%; under setting [3], 28.6%; under setting [4], 43.9%; under setting [5], 40.1%. The percent labeling came out at 47.8% under setting [6]; 44.1% under setting [12]; 43.4% under setting [7]; 41.5% under setting [8]; 34.6% under setting [9]; 51.4% under setting [10].
`Cc1cn(C(C)(C)C(=O)NCCS)nc1C(F)(F)F`: the percent labeling by setting is: under setting [11], 37%; under setting [1], 10.3%; under setting [2], 26%; under setting [3], 17.8%; under setting [4], 35.8%; under setting [5], 25.1%. Further, the percent labeling was determined as 22.6% under setting [6]; 30.8% under setting [12]; 20.4% under setting [7]; 24.8% under setting [8]; 22.9% under setting [9]; 33.9% under setting [10].
`COc1ccc(Br)c2c1C(NC(=O)CCS)CC2` (stereo not given): the percent labeling was determined as 11.8% under setting [1]; 25.8% under setting [2]; 27% under setting [3]; 13.7% under setting [4]; 20.9% under setting [5]; 28.4% under setting [6]. Besides, the percent labeling by setting is: under setting [7], 18.5%; under setting [8], 19.7%; under setting [9], 8.7%; under setting [10], 34.7%.
In turn, `Cn1ncc(C(F)(F)F)c1CNC(=O)CCS` yielded a percent labeling under setting [1] of 11.7%; a percent labeling under setting [2] of 30.5%; a percent labeling under setting [3] of 38.2%; a percent labeling under setting [4] of 32.9%; a percent labeling under setting [5] of 30.3%; a percent labeling under setting [6] of 19.8%. In addition, the percent labeling reads like this: under setting [7], 23.4%; under setting [8], 33.2%; under setting [9], 40.2%; under setting [10], 48.7%.
Consider `Cc1nc2cc[nH]n2c(=O)c1CC(=O)NCCS`, for which the percent labeling worked out at 26% under setting [11]; 15.6% under setting [1]; 26.7% under setting [2]; 29.5% under setting [3]; 57.3% under setting [4]; 25.8% under setting [5]. Besides, the percent labeling reads like this: under setting [6], 22.3%; under setting [12], 36.5%; under setting [7], 34.4%; under setting [8], 26.7%; under setting [9], 33.4%; under setting [10], 41.8%.
In the case of `Cc1cc(C(=O)NCCS)c2nccc(C)c2c1`, the percent labeling amounted to 31.5% under setting [11]; 44.7% under setting [1]; 17.9% under setting [2]; 6.3% under setting [3]; 14.9% under setting [4]; 15.9% under setting [5]. For the same compound, the percent labeling stood at 60.2% under setting [6]; 36.2% under setting [12]; 13% under setting [7]; 13.1% under setting [8]; 9.1% under setting [9]; 21.2% under setting [10].
Regarding `O=C(NCCS)c1cc2ccc(F)cc2s1`, the percent labeling is, setting by setting: under setting [11], 24.1%; under setting [1], 10.7%; under setting [2], 8.3%; under setting [3], 13.3%; under setting [4], 7.8%; under setting [5], 4.5%. For the same compound, the percent labeling is, setting by setting: under setting [6], 38.3%; under setting [12], 24.2%; under setting [7], 6.7%; under setting [8], 8.6%; under setting [9], 7.9%; under setting [10], 10.9%.
As to `Cc1ccc(C)n1-c1sccc1C(=O)NCCS`, the percent labeling came out at 3.3% under setting [11]; 3.2% under setting [1]; 7.1% under setting [2]; 5% under setting [3]; 9.4% under setting [4]; 6.4% under setting [5]. The percent labeling came to 0% under setting [6]; 7.4% under setting [12]; 7% under setting [7]; 8.3% under setting [8]; 7.2% under setting [9]; 8.1% under setting [10].
With `CCc1nn(CC(=O)NCCS)c(=O)c2cc3sccc3n12`, the percent labeling reads like this: under setting [11], 9.2%; under setting [1], 0%; under setting [2], 5.7%; under setting [3], 7.7%; under setting [4], 13.2%; under setting [5], 6.2%. For the same compound, the percent labeling came out at 17.4% under setting [6]; 12% under setting [12]; 4.7% under setting [7]; 5.2% under setting [8]; 4.1% under setting [9]; 8.4% under setting [10].
Consider `CN(Cc1cc(F)ccc1Oc1ccc(F)cc1Cl)C(=O)CCS`, for which the percent labeling reads like this: under setting [1], 24.7%; under setting [2], 29.7%; under setting [3], 24.1%; under setting [4], 17.1%; under setting [5], 13.8%; under setting [6], 42.5%. Also, the percent labeling reads like this: under setting [7], 17.3%; under setting [8], 16.8%; under setting [9], 6.8%; under setting [10], 47%.
With `Cc1nc2nc(C(F)(F)F)nn2c(C)c1CCC(=O)NCCS`, the percent labeling was 34.9% under setting [11]; 13.4% under setting [1]; 32% under setting [2]; 31.9% under setting [3]; 16.9% under setting [4]; 30.8% under setting [5]. Also, the percent labeling is, setting by setting: under setting [6], 19.6%; under setting [12], 30%; under setting [7], 13.5%; under setting [8], 31.6%; under setting [9], 19.7%; under setting [10], 38%.
For `O=C(NCCS)C1CCC(N2CCOCC2)CC1` (stereo not given), the percent labeling was 29.9% under setting [11]; 12.2% under setting [1]; 34% under setting [2]; 28.5% under setting [3]; 32.3% under setting [4]; 37.7% under setting [5]. The percent labeling worked out at 11.5% under setting [6]; 39.2% under setting [12]; 25.6% under setting [7]; 28.3% under setting [8]; 26.2% under setting [9]; 45.5% under setting [10].
